“And” between values parts separate entries of the source, which are not always exact repeats. Equal values may be shown once. Out of some 16,000 compounds screened, about 260 (1.6%) were called active. This list was built around the results that the source calls inconclusive (neither active nor inactive); the mix of calls is not that of the screen. The call rests on the fitted dose curve; in most records, active means well fitted inhibition curve with a large enough effect; inconclusive means small, poorly fitted or top-dose-only effect; inactive means no such curve, though single readings can be large or run the other way. Potencies beside an inconclusive call are fits to weak or partial responses and may not hold up.
These compounds were tested against Rap guanine nucleotide exchange factor 4 (Homo sapiens) (UniProt Q8WZA2) (assay: Validation qHTS for antagonist of cAMP-regulated guanine nucleotide exchange factor 4 (EPAC2)). Conditions: EPAC2 Rap1B BODIPY-GDP exchange, fluorescence; activity, negative = inhibition: at 112 µM (top of the series).
Procedure, shortened: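 Normalized against a 6.5 mM cAMP agonist control, compounds were tested on 100 nM EPAC2 exchanging Rap1B-bound BODIPY-GDP (250 nM) for 50 uM GDP. Fluorescence drop (ex 480, em 540 nm) was tracked at room temperature over 30 min at 5-min intervals.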
Further: nearly all actives have a fitted effect of over 40% in size.
Potency means the concentration at half of the fitted maximal effect; tags describe the fitted curve by direction and shape.

Chain of UniProt Q8WZA2 (Q8WZA2 whole entry, looked up): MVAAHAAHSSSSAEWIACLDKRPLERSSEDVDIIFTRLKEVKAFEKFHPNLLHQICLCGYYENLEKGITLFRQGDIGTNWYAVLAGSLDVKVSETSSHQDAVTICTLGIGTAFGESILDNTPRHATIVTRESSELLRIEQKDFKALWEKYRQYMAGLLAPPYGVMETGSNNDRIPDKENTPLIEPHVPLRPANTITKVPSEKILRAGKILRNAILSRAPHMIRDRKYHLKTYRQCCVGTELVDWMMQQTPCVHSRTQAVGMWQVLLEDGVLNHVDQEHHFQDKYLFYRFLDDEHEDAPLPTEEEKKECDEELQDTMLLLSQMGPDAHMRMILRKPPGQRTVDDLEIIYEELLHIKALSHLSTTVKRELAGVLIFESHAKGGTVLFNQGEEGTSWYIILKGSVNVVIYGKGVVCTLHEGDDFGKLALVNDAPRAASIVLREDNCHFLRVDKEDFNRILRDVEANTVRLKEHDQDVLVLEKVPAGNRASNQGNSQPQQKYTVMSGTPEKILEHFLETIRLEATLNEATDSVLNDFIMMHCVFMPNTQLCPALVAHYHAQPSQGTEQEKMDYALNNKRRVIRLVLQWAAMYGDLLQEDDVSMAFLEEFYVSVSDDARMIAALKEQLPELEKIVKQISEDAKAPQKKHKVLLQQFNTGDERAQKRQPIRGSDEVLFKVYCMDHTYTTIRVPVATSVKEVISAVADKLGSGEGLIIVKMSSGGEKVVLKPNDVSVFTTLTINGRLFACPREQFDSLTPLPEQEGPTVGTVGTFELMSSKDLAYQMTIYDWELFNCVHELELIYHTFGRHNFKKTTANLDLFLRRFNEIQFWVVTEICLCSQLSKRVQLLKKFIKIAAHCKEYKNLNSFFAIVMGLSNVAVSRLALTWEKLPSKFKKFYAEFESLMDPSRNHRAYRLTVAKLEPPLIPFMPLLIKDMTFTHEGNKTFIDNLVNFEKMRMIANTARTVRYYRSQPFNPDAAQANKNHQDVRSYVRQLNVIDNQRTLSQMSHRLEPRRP

Row | SMILES | activity, negative = inhibition | Potency
1 | COc1ncc2nc(-c3ccc(Cl)cc3)c(=O)n(-c3ccccc3)c2n1 | inactive: -19.4% | 
2 | CCOC(=O)C(C#N)=C(c1ccccc1)c1ccccc1 |  | inconclusive: 39.8 µM [inhibitor, partial curve]
3 | CC(C)OC(=O)C(C(=O)OC(C)C)=C1SC=CS1 |  | inconclusive: 1.58 µM [inhibitor, partial curve, poor fit]
4 | O=S1(=O)CCOC[C@H](CC2CCCCC2)N1Cc1ccccc1Br |  | inconclusive: 50.1 µM [inhibitor, partial curve, poor fit]
5 | CCN(CC)CCNC(=O)c1cnn(-c2nccc(-c3cc4ccccc4o3)n2)c1C | inactive: -6.86% | 
6 | C[C@@]1(C(=O)O)NCCc2cc(O)c(O)cc21 |  | inconclusive: 79.4 µM [inhibitor, single point]
7 | COC(=O)c1ccc(CN2CCC3(CCC(CNC(=O)c4ccco4)O3)CC2)cc1 (stereo not drawn) |  | inconclusive: 2.51 µM [inhibitor, full curve, poor fit]
8 | COc1cc(O)c(C(=O)/C=C/c2ccc(OC)c(O)c2)c(OC)c1 | inactive: -26.6% | 
9 | COCCNc1nc(-c2ccc(C(=O)N(C)C)cc2)nc2ccccc12 |  | inconclusive: 50.1 µM [inhibitor, partial curve]
10 | Cc1c(C(=O)NCc2ccc(F)cc2)sc2ncnc(NCC3CCCO3)c12 (stereo not drawn) | inactive: -4.78% | 
11 | O=C1NC(=O)C(c2ccccc2[N+](=O)[O-])=C1Nc1ccc(O)c(Cl)c1 |  | inconclusive: 79.4 µM [inhibitor, partial curve] and inconclusive: 100 µM [inhibitor, single point]
12 | Cc1ccccc1C(=O)N1CCc2c(cnc(C)c2CNC(=O)c2ccc3c(c2)OCO3)C1 | inactive: 11.6% | 
13 | CCCCCCCCCCCCCCCC[n+]1ccc(/C=C/c2c[nH]c3ccccc23)c2ccccc21 |  | inconclusive: 56.2 µM [inhibitor, partial curve]
14 | COc1cccc(N2[C@@H](CC(C)=O)c3ccccc3S2(=O)=O)c1 |  | inconclusive: 100 µM [inhibitor, single point]
15 | CC(C)=CCOc1ccc(/C=C/C(=O)c2ccc(OCC=C(C)C)cc2OCC(=O)O)cc1 | inactive: -6.86% | 
16 | CC(C)c1c(C(=O)NC(c2cccnc2)C(F)(F)F)cnn1-c1nccc(-c2cccs2)n1 (stereo not drawn) |  | inconclusive: 56.2 µM [inhibitor, partial curve, poor fit]
17 | CC(C(=O)O)c1cccc(Oc2ccccc2)c1 (stereo not drawn) |  | inactive
18 | COc1ccc(O)c(CN2CCOc3c(cc(-c4cccc(OC)n4)cc3OC)C2)c1 |  | inconclusive: 79.4 µM [inhibitor, single point]
19 | O=C(C[n+]1ccnc2ccccc21)c1ccc(Br)cc1 |  | inconclusive: 89.1 µM [inhibitor, single point]
20 | O=C(Nc1cccc(F)c1)N1CC[C@@]2(CCCN(C(=O)c3cc(C(F)(F)F)cc(C(F)(F)F)c3)C2)C1 |  | inconclusive: 56.2 µM [inhibitor, partial curve, poor fit]

Row | SMILES | activity, negative = inhibition | Potency
21 | O=C1OC(c2ccc(O)cc2)(c2ccc(O)cc2)c2ccccc21 |  | inconclusive: 39.8 µM [inhibitor, partial curve]
22 | O=c1c(-c2ccccc2)nc2cncnc2n1Cc1ccccc1Cl |  | inconclusive: 1.78 µM [inhibitor, full curve, poor fit]
23 | COc1ccc(OC)c(/C=C/c2ccnc3ccccc23)c1 |  | inconclusive: 44.7 µM [inhibitor, partial curve, poor fit]
24 | COc1c(-c2coc3cc4c(cc3c2=O)CC(O)C(C)(C)O4)ccc2c1C=CC(C)(C)O2 (stereo not drawn) |  | inconclusive: 14.1 µM [inhibitor, full curve]
25 | CCNc1ncc2ncc(=O)n(Cc3cccc(OC)c3)c2n1 |  | inconclusive: 79.4 µM [inhibitor, partial curve, poor fit]
26 | OCCN1CCN(CC/C=C2/c3ccccc3Sc3ccc(C(F)(F)F)cc32)CC1 |  | inconclusive: 39.8 µM [inhibitor, partial curve, poor fit] and inconclusive: 31.6 µM [inhibitor, partial curve, poor fit]
27 | COc1cccc(Nc2ncc3ncc(=O)n(C4CC4)c3n2)c1 | inactive: -20.3% | 
28 | COc1ccccc1-c1cncnc1NCc1cccc(C)c1 |  | inconclusive: 56.2 µM [inhibitor, partial curve, poor fit]
29 | Cc1ccc(C(=O)c2ccc(CC(=O)O)n2C)cc1 |  | inconclusive: 0.112 µM [inhibitor, full curve, poor fit]
30 | COCC(=O)N1CCC2(CCCN(C(c3ccccc3)c3ccccc3)C2)CC1 |  | inconclusive: 89.1 µM [inhibitor, single point]
31 | Cc1cc(C)nc(S[C@H]2C[C@@H](C(=O)N3CCN(c4ccccc4F)CC3)N(Cc3ccccc3F)C2)n1 |  | inconclusive: 89.1 µM [inhibitor, partial curve, poor fit]
32 | COc1ccccc1CNc1ccnc(-c2ccc3c(c2)OCO3)n1 |  | inconclusive: 50.1 µM [inhibitor, partial curve, poor fit]
33 | O=C(c1ccncc1)N1CCC2(CCCN(C(c3ccccc3)c3ccccc3)C2)CC1 |  | inconclusive: 89.1 µM [inhibitor, single point]
34 | COc1ccc(Oc2ncc3ncc(=O)n(CCC#N)c3n2)cc1 |  | inconclusive: 25.1 µM [inhibitor, full curve, poor fit]
35 | COc1cc(=O)n2c(c1C(=O)N(C)Cc1nonc1C)CCN(CC1CC=CCC1)CC2 (stereo not drawn) |  | inconclusive: 11.2 µM [inhibitor, full curve, poor fit]
36 | O=C1c2ccccc2C(=O)C1c1ccc(F)cc1 |  | inconclusive: 89.1 µM [inhibitor, single point]
37 | COc1ccccc1-c1oc2ccccc2c(=O)c1OC |  | inconclusive: 79.4 µM [inhibitor, partial curve]
38 | COc1cc(/C=C/C(=O)O[C@H]2CC[C@]34C[C@]35CC[C@]3(C)[C@@H]([C@H](C)CCC=C(C)C)CC[C@@]3(C)[C@@H]5CC[C@H]4C2(C)C)ccc1O |  | inactive
39 | CSc1nccc(-c2cc(Cl)c3c(c2)CC(CNC(=O)c2ccc(C)nc2)O3)n1 (stereo not drawn) |  | inconclusive: 25.1 µM [inhibitor, full curve, poor fit]
40 | COc1cccc(OC)c1OCCNC[C@@H]1COc2ccccc2O1 | inactive: -28.2% | 

Row | SMILES | activity, negative = inhibition | Potency
41 | Cc1cc(C(=O)O)ccc1[C@H](N)C(=O)O |  | inconclusive: 31.6 µM [inhibitor, partial curve, poor fit]
42 | CC(Cc1cccc(C(F)(F)F)c1)NCCOC(=O)c1ccccc1 (stereo not drawn) |  | inconclusive: 17.8 µM [inhibitor, full curve]
43 | COc1ccccc1CNc1ncncc1-c1ccc(N(C)C)cc1 |  | inconclusive: 50.1 µM [inhibitor, partial curve]
44 | COC(=O)C[C@H]1c2cc(C(F)(F)F)ccc2S(=O)(=O)N1c1ccc(N(C)C)cc1 |  | inconclusive: 11.2 µM [inhibitor, partial curve, poor fit]
45 | COc1ccc(CNc2ccnc(-c3c(C)noc3C)n2)c(OC)c1 | inconclusive: -38.4% [inhibitor] | 
46 | COc1cccc(C(=O)O[C@H]2[C@H](C)NS(=O)(=O)[C@H]3C[C@@H]4C=C[C@]23O4)c1 |  | inconclusive: 56.2 µM [inhibitor, partial curve, poor fit]
47 | CC(C)(C)c1ccc(S(=O)(=O)N[C@H]2CC[C@@H](n3cc(C(=O)N4CCCC4)nn3)CC2)cc1 |  | inconclusive: 3.98 µM [inhibitor, full curve, poor fit]
48 | NNCCc1ccccc1 |  | inconclusive: 31.6 µM [inhibitor, single point]
49 | CO[C@H]1C=CO[C@@]2(C)Oc3c(C)c(O)c4c(O)c(c5c(c4c3C2=O)=NC2(CCN(CC(C)C)CC2)N=5)NC(=O)/C(C)=C\C=C/[C@H](C)[C@H](O)[C@@H](C)[C@@H](O)[C@@H](C)[C@H](OC(C)=O)[C@@H]1C |  | inconclusive: 44.7 µM [inhibitor, partial curve, poor fit]
50 | CC(C)(C=O)Cc1cc(C(C)(C)C)c(O)c(C(C)(C)C)c1 |  | inconclusive: 89.1 µM [inhibitor, partial curve] and inconclusive: 44.7 µM [inhibitor, partial curve, poor fit]
51 | CN(C)c1ccc(/C=C/c2ccnc3ccc(F)cc23)cc1 |  | inconclusive: 2 µM [inhibitor, full curve, poor fit]
52 | CC(=O)[C@H]1CCC2C3CC=C4C[C@@H](OS(=O)(=O)O)CC[C@]4(C)C3CC[C@@]21C (stereo partly drawn) |  | inconclusive: 89.1 µM [inhibitor, single point]
53 | COC(=O)CC1C(C)(C)C(OC(C)=O)C2CC3=C4CC(=O)OC(c5ccoc5)[C@]4(C)CCC3[C@@]1(C)C2=O (stereo partly drawn) | inactive: -17% | 
54 | CC(C)CN1CCC(=O)N([C@H](COc2ccccc2)Cc2ccccc2)CC1 |  | inconclusive: 89.1 µM [inhibitor, single point]
55 | Oc1ccc(/C=C\c2cc(O)cc(O)c2)cc1 |  | active: 28.2 µM
56 | C=C[C@@H](C)N(Cc1ccc(OC)cc1)S(=O)(=O)N(Cc1ccccc1)[C@H](C=C)C(C)C |  | inconclusive: 89.1 µM [inhibitor, single point]
57 | Cc1noc(C)c1C(=O)N1CCC[C@@]2(CCN(Cc3cc(C(F)(F)F)cc(C(F)(F)F)c3)C2)C1 |  | inconclusive: 63.1 µM [inhibitor, partial curve, poor fit]
58 | CN1CCC(=C2c3ccccc3C=Cc3ccccc32)CC1 |  | inconclusive: 56.2 µM [inhibitor, partial curve] and inconclusive: 70.8 µM [inhibitor, partial curve, poor fit]

Reference: PubChem BioAssay AID1645886 (National Center for Advancing Translational Sciences (NCATS), 2021)
